From publication PMC5737734 (Journal of molecular biology, 2011)

T1: DnaJ with the biotin carboxyl carrier protein (BCCP) fused at the C-terminus (E. coli, UniProt P08622 1-376)
T1 sequence (looked up): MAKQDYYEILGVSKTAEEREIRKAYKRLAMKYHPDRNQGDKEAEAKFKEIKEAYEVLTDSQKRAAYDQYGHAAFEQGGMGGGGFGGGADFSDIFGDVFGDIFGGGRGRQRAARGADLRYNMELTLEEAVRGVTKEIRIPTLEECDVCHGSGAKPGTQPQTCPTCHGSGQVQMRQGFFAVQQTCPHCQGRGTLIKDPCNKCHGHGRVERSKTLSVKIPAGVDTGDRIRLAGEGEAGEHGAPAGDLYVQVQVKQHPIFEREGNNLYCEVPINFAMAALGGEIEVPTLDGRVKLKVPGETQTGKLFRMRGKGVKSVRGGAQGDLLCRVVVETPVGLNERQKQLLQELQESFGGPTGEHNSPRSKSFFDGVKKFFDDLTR


Target: T1, DnaJ with the biotin carboxyl carrier …
Assay: SPR

SPR signal relative to WT DnaK	Binder
~10%	DnaK L390A (natural protein) not shown
~10%	DnaK V389D (natural protein) not shown
~10%	DnaK L391A (natural protein) not shown
